# Laboratory results as given in the supplement of paper PMC8728848.
# The other results are listed elsewhere or left out.
# B1: SBD-G4S3-Fc (protein)
# chain: MASIPSSASVQLDSYNYDGSTFSGKIYVKNIAYSKKVTVVYADGSDNWNNNGNIIAASFSGPISGSNYEYWTFSASVKGIKEFYIKYEVSGKTYYDNNNSANYQVSTGGGGSGGGGSGGGGSEFVPRDCGCKPCICTVPEVSSVFIFPPKPKDVLTITLTPKVTCVVVDISKDDPEVQFSWFVDDVEVHTAQTQPREEQFNSTFRSVSELPIMHQDWLNGKEFKCRVNSAAFPAPIEKTISKTKGRPKAPQVYTIPPPKEQMAKDKVSLTCMITDFFPEDITVEWQWNGQPAENYKNTQPIMDTDGSYFVYSKLNVQKSNWEAGNTFTCSVLHEGLHNHHTEKSLSHSPGAA
# Key:
# Assay in all cases: glycan array binding signal (z-score within array); higher = stronger binding
# Conditions in all cases: glycan notation: IUPAC condensed, linker removed
# Neu5Ac(a2-8)Neu5Ac = molecular target: Neu5Ac(a2-8)Neu5Ac
# Outline: (§1)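 Glycan array data were curated from 3228 arrays in the Consortium for Functional Glycomics database and kept only where the protein sequence was available. Glycan names were converted to IUPAC-condensed notation, and columns mapping to the same glycan were averaged. The binding signal is a within-array Z-score, averaged across arrays of the same protein sequence at different concentrations or buffers and across linkers. Negative Z-scores can be read as non-binding.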
# [1] = molecular target: Neu5Ac(a2-8)Neu5Ac(a2-3)Gal(b1-3)GalNAc(b1-4)[Neu5Ac(a2-3)]Gal(b1-4)Glc
# Outline: as §1
# [2] = molecular target: Neu5Ac(a2-8)Neu5Ac(a2-3)Gal(b1-3)GalNAc(b1-4)[Neu5Ac(a2-8)Neu5Ac(a2-3)]Gal(b1-4)Glc
# Outline: as §1
# [3] = molecular target: Neu5Ac(a2-8)Neu5Ac(a2-3)Gal(b1-4)Glc
# Outline: as §1
# [4] = molecular target: Neu5Ac(a2-8)Neu5Ac(a2-3)Gal(b1-4)GlcNAc
# Outline: as §1
# [5] = molecular target: Neu5Ac(a2-8)Neu5Ac(a2-3)[Gal(b1-3)GalNAc(b1-4)]Gal(b1-4)Glc
# Outline: as §1
# [6] = molecular target: Neu5Ac(a2-8)Neu5Ac(a2-3)[GalNAc(b1-4)]Gal(b1-4)Glc
# Outline: as §1
# [7] = molecular target: Neu5Ac(a2-8)Neu5Ac(a2-8)Neu5Ac
# Outline: as §1
# [8] = molecular target: Neu5Ac(a2-8)Neu5Ac(a2-8)Neu5Ac(a2-3)Gal(b1-4)Glc
# Outline: as §1
# [9] = molecular target: Neu5Ac(a2-8)Neu5Ac(a2-8)Neu5Ac(a2-3)[Gal(b1-3)GalNAc(b1-4)]Gal(b1-4)Glc
# Outline: as §1
# [10] = molecular target: Neu5Ac(a2-8)Neu5Ac(a2-8)Neu5Ac(a2-3)[GalNAc(b1-4)]Gal(b1-4)Glc
# Outline: as §1
# [11] = molecular target: Neu5Ac(a2-8)Neu5Ac(a2-8)Neu5Ac(a2-8)Neu5Ac(a2-3)[GalNAc(b1-4)]Gal(b1-4)Glc
# Outline: as §1
# [12] = molecular target: Neu5Ac(a2-8)Neu5Gc(a2-3)Gal(b1-4)GlcNAc
# Outline: as §1
# [13] = molecular target: Neu5Ac(b2-6)Gal(b1-4)GlcNAc
# Outline: as §1
# Neu5Ac(b2-6)GalNAc = molecular target: Neu5Ac(b2-6)GalNAc
# Outline: as §1
# [14] = molecular target: Neu5Ac9Ac(a2-3)Gal(b1-3)GlcNAc
# Outline: as §1
# [15] = molecular target: Neu5Ac9Ac(a2-3)Gal(b1-4)GlcNAc
# Outline: as §1
# [16] = molecular target: Neu5Ac9Ac(a2-6)Gal(b1-4)GlcNAc
# Outline: as §1
# [17] = molecular target: Neu5Gc(a2-3)Gal(b1-3)GlcNAc
# Outline: as §1
# [18] = molecular target: Neu5Gc(a2-3)Gal(b1-3)[Fuc(a1-4)]GlcNAc
# Outline: as §1
# Neu5Gc(a2-3)Gal(b1-4)Glc = molecular target: Neu5Gc(a2-3)Gal(b1-4)Glc
# Outline: as §1
# [19] = molecular target: Neu5Gc(a2-3)Gal(b1-4)GlcNAc
# Outline: as §1
# [20] = molecular target: Neu5Gc(a2-3)Gal(b1-4)GlcNAc(b1-3)Gal(b1-4)GlcNAc(b1-2)Man(a1-3)[Neu5Gc(a2-3)Gal(b1-4)GlcNAc(b1-3)Gal(b1-4)GlcNAc(b1-2)Man(a1-6)]Man(b1-4)GlcNAc(b1-4)GlcNAc
# Outline: as §1
# [21] = molecular target: Neu5Gc(a2-3)Gal(b1-4)[Fuc(a1-3)]GlcNAc
# Outline: as §1
# [22] = molecular target: Neu5Gc(a2-6)Gal(b1-4)GlcNAc
# Outline: as §1
# Neu5Gc(a2-6)GalNAc = molecular target: Neu5Gc(a2-6)GalNAc
# Outline: as §1
# [23] = molecular target: Neu5Gc(a2-8)Neu5Ac(a2-3)Gal(b1-4)GlcNAc
# Outline: as §1
# [24] = molecular target: Neu5Gc(a2-8)Neu5Gc(a2-3)Gal(b1-4)GlcNAc
# Outline: as §1
# [25] = molecular target: Neu5Gc(a2-8)Neu5Gc(a2-3)Gal(b1-4)GlcNAc(b1-3)Gal(b1-4)GlcNAc
# Outline: as §1
# [26] = molecular target: Neu5Gc(a2-8)Neu5Gc(a2-6)Gal(b1-4)GlcNAc
# Outline: as §1
# [27] = molecular target: Neu5Gc(b2-6)Gal(b1-4)GlcNAc
# Outline: as §1
binder,measurement,setting,value
B1,glycan array binding signal (z-score),Neu5Ac(a2-8)Neu5Ac,-0.103
same,glycan array binding signal (z-score),[1],0.176
same,glycan array binding signal (z-score),[2],-0.313
same,glycan array binding signal (z-score),[3],-0.345
same,glycan array binding signal (z-score),[4],0.376
same,glycan array binding signal (z-score),[5],-0.244
same,glycan array binding signal (z-score),[6],-0.463
same,glycan array binding signal (z-score),[7],-0.37
same,glycan array binding signal (z-score),[8],-0.456
same,glycan array binding signal (z-score),[9],-0.248
same,glycan array binding signal (z-score),[10],-0.468
same,glycan array binding signal (z-score),[11],-0.006
same,glycan array binding signal (z-score),[12],7.21
same,glycan array binding signal (z-score),[13],-0.368
same,glycan array binding signal (z-score),Neu5Ac(b2-6)GalNAc,-0.513
same,glycan array binding signal (z-score),[14],0.058
same,glycan array binding signal (z-score),[15],-0.352
same,glycan array binding signal (z-score),[16],0.039
same,glycan array binding signal (z-score),[17],-0.167
same,glycan array binding signal (z-score),[18],-0.293
same,glycan array binding signal (z-score),Neu5Gc(a2-3)Gal(b1-4)Glc,-0.139
same,glycan array binding signal (z-score),[19],-0.038
same,glycan array binding signal (z-score),[20],-0.115
same,glycan array binding signal (z-score),[21],0.185
same,glycan array binding signal (z-score),[22],-0.372
same,glycan array binding signal (z-score),Neu5Gc(a2-6)GalNAc,-0.136
same,glycan array binding signal (z-score),[23],-0.265
same,glycan array binding signal (z-score),[24],0.127
same,glycan array binding signal (z-score),[25],-0.307
same,glycan array binding signal (z-score),[26],-0.4
same,glycan array binding signal (z-score),[27],-0.085
